Hit rate of the full screen: of about 350,000 compounds, about 260 (0.074%) were called active. Inconclusive means that the source gave no clear call. Such entries were picked first, then a sample of the others. The call rests on the fitted dose curve; in most records, active means well fitted inhibition curve with a large enough effect; inconclusive means small, poorly fitted or top-dose-only effect; inactive means no such curve, though single readings can be large or run the other way. Potencies beside an inconclusive call are fits to weak or partial responses and may not hold up.
target: Ferritin light chain (Equus caballus) (UniProt P02791); test: qHTS Assay for Identification of Novel General Anesthetics; details: apoferritin/1-aminoanthracene competitive binding, fluorescence; activity change, negative = displacement: at 77.5 µM (top of the series); further: nearly all actives have a fitted effect of over 20% in size
Sequence of UniProt P02791 (P02791 whole entry, looked up): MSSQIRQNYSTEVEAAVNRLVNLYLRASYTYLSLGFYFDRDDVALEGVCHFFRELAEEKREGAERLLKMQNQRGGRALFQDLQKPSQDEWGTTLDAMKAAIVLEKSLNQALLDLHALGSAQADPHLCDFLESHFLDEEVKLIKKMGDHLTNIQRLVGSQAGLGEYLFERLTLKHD
Outline: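 Steps: apoferritin (10 uM) was premixed with half-saturated 1-AMA in PBS, compounds were pin-transferred, plates stood 10 min at room temperature, fluorescence was read at 380/535 nm, and curves were fitted with a Hill equation.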
On the % scale 0 is the no-effect control and ±100 the full control effect; potency means the concentration at half of the fitted maximal effect; tags describe the fitted curve by direction and shape.

Row | Compound | Potency | activity change, negative = displacement
1 | CCC(NC(=O)c1cc(COc2cncc(Cl)c2)on1)c1ccc(C)cc1 (stereo not drawn) | inconclusive: 31.6 µM [inhibitor, partial curve] | –
2 | CC(=O)c1c(C)oc2c(Br)cc(NS(=O)(=O)c3ccc(Br)cc3)cc12 | inconclusive: 11.2 µM [inhibitor, full curve, poor fit] | –
3 | CC1(C)CC(=O)C2=C(C1)O[C@@]1(CCCCN3C(=O)c4ccccc4C3=O)Cc3ccccc3C2O1 | inconclusive: 7.08 µM [inhibitor, partial curve] | –
4 | CN(Cc1ccc(F)cc1)S(=O)(=O)c1nnc(NC(=O)c2ccccc2Br)s1 | inconclusive: 44.7 µM [inhibitor, single point] | –
5 | O=C(OCCN1C(=O)c2ccccc2C1=O)c1cc2ccccc2o1 | inconclusive: 39.8 µM [inhibitor, partial curve] | –
6 | COc1cc(C(=O)NCCOc2cc(C)cc(C)c2)c(Br)c(OC)c1OC | inconclusive: 31.6 µM [inhibitor, partial curve] | –
7 | O=C(Cn1c(=O)n(Cc2ccc(Cl)cc2)c(=O)c2cccnc21)Nc1ccccc1C(F)(F)F | inactive | –
8 | OC(c1ccc(Cl)cc1)c1nnc(-c2ccccc2)o1 (stereo not drawn) | inconclusive: 28.2 µM [inhibitor, partial curve] | –
9 | Cc1ccc(-n2nc3c(=O)n(CCCC(=O)NCc4ccccc4C)nc(C)c3c2C)cc1 | inconclusive: 2.82 µM [inhibitor, full curve] | –
10 | Brc1ccc(Sc2cnc3ccccc3n2)cc1 | inconclusive: 44.7 µM [inhibitor, partial curve] | –
11 | Cn1c(SCC(=O)NCCc2ccc(S(N)(=O)=O)cc2)nc2ccccc2c1=O | inconclusive: 12.6 µM [inhibitor, partial curve, poor fit] | –
12 | COc1ccc(-n2nc(C(=O)NCC(=O)N3CCOCC3)c3ccccc3c2=O)c(OC)c1 | inactive | –
13 | CCCCCc1c(O)c2ccccc2[nH]c1=O | inactive | –
14 | C=CCn1c(SCC(=O)c2ccc(O)c(O)c2)nnc1-c1ccccc1OC | inconclusive: 10 µM [inhibitor, partial curve] | –
15 | Cc1ccc(NC(=O)c2ccccc2NS(=O)(=O)c2ccc(Cl)s2)cc1S(=O)(=O)N1CCOCC1 | inactive | –
16 | CCCCOc1ccc(/C=N/Nc2cc(N3CCOCC3)nc(C)n2)cc1 | inconclusive: 6.31 µM [inhibitor, single point] | –
17 | Cc1cccc(NC(=O)C2CCCN(S(=O)(=O)c3ccc4[nH]c(=O)ccc4c3)C2)c1 (stereo not drawn) | inconclusive: 14.1 µM [inhibitor, partial curve] | –
18 | CCn1c(SC/C=C/c2ccccc2)nnc1-c1cccs1 | inconclusive: 35.5 µM [inhibitor, single point] | –
19 | Cc1ccc(Cl)cc1NC(=O)Nc1nnc(N2CCCC(C)C2)s1 (stereo not drawn) | inconclusive: 28.2 µM [inhibitor, partial curve] | –
20 | COc1ccccc1N1CCN(C(=O)c2ccc(C(C)(C)C)cc2)CC1 | inconclusive: 50.1 µM [inhibitor, single point] | –
21 | Cc1cccc(C(=O)NCC(=O)OCc2cc(=O)n3nc(CC(C)C)sc3n2)c1 | inconclusive: 20 µM [inhibitor, partial curve] | –
22 | O=S(=O)(Nc1cccc(Br)c1)c1cccc2nsnc12 | inconclusive: 50.1 µM [inhibitor, single point] | –
23 | CC1CCCCN1S(=O)(=O)c1ccc(C(=O)Nc2nnc(-c3ccncc3)o2)cc1 (stereo not drawn) | inactive | –

Row | Compound | Potency | activity change, negative = displacement
24 | CN(C)c1ccc(CNC(=O)c2cccc(NC(=O)N3CCSc4ncccc43)c2)cc1 | inactive | –
25 | Cn1c(=O)c2c(-c3cccc(Br)c3)n(C(C)(C)CO)cc2n(C)c1=O | inconclusive: 22.4 µM [inhibitor, partial curve] | –
26 | Cc1ccccc1NC(=O)c1cc(S(=O)(=O)N2CCCCC2)cs1 | inconclusive: 12.6 µM [inhibitor, partial curve] | –
27 | CC(=O)c1cccc(NS(=O)(=O)N2CCCCC2)c1 | inconclusive: 12.6 µM [inhibitor, partial curve] | –
28 | Cc1ccc(S(=O)(=O)NC2(C(F)(F)F)NC(=O)N(CCc3ccccc3)C2=O)cc1 (stereo not drawn) | inconclusive: 8.91 µM [inhibitor, partial curve] | –
29 | NNC(=O)c1cc2cc3ccccc3nc2s1 | inactive | –
30 | Cc1ccc(NS(=O)(=O)c2ccc3c(c2)n(C)c(=O)n3C)cc1C | inactive | –
31 | O=c1cc2c(nn1Cc1ccccc1)-c1ccccc1CC2 | inconclusive: 25.1 µM [inhibitor, single point] | –
32 | O=C1CCCN1CCCNS(=O)(=O)c1ccccc1 | inactive | –
33 | O=C(NCCn1cc(SCc2ccccc2Cl)c2ccccc21)c1cccs1 | inactive | –
34 | Cc1cc(C)cc(NC(=O)Cn2cc(S(=O)(=O)NC(C)(C)C)c(S(=O)(=O)NC(C)(C)C)c2)c1 | inconclusive: 2.24 µM [inhibitor, full curve, poor fit] | –
35 | N/C(=N/O)c1cccn1Cc1ccccc1[N+](=O)[O-] | inconclusive: 31.6 µM [inhibitor, single point] | –
36 | NNC(=O)CNC(=O)C12CC3CC(CC(C3)C1)C2 | active: 7.94 µM | –
37 | C/C=C\C1=C(CO)C(=O)[C@@H]2OC2C1=O (stereo partly drawn) | – | inactive: 4.39% [at 15.3 µM]
38 | Cc1ccc(S(=O)(=O)Nc2cccc3ncccc23)s1 | inconclusive: 11.2 µM [inhibitor, partial curve] | –
39 | CCCCCCOC(=O)NCC(O)c1ccccc1 (stereo not drawn) | inconclusive: 35.5 µM [inhibitor, partial curve] | –
40 | CCOC(=O)NNC(=O)C12CC3CC(CC(C3)C1)C2 | inconclusive: 31.6 µM [inhibitor, partial curve] | –
41 | COc1cccc(-n2cnc3sc(C)cc3c2=O)c1 | inconclusive: 39.8 µM [inhibitor, partial curve] | –
42 | COc1ccc(S(=O)(=O)c2cn(CC(=O)Nc3cc(C)ccc3C)c3ccccc3c2=O)cc1 | inactive | –
43 | CN(C)c1ccc(C2OC(=O)C(C)(C)C(=O)C2(C)C)cc1 (stereo not drawn) | inconclusive: 3.55 µM [inhibitor, full curve] | –
44 | CCC1CN(C(=O)NCc2ccc(C)cc2)c2cc(Cl)ccc2O1 (stereo not drawn) | inconclusive: 7.94 µM [inhibitor, full curve] | –
45 | Cc1ccc2scc(N3CCc4ccccc4C3)c(=O)c2c1 | inconclusive: 28.2 µM [inhibitor, partial curve] | –
46 | CN(C)CCNC(=O)COc1ccc(C23CC4CC(CC(C4)C2)C3)cc1 | inconclusive: 8.91 µM [inhibitor, full curve] | –

Row | Compound | Potency | activity change, negative = displacement
47 | O/N=C1\CCc2cc(Cl)ccc21 | inconclusive: 14.1 µM [inhibitor, partial curve] | –
48 | COc1cc(/C=C2/SC(=S)N(CC(=O)Nc3nc4ccccc4s3)C2=O)cc(OC)c1OC | inconclusive: 14.1 µM [inhibitor, partial curve] | –
49 | CCC1C(=O)C(CC)C(c2ccccc2)NC1c1ccccc1 (stereo not drawn) | inactive | –
50 | CCn1c(O)c(N=NC(=S)NCC2CCCO2)c2ccccc21 (stereo not drawn) | inconclusive: 17.8 µM [inhibitor, partial curve] | –
51 | Cn1cc(C2=C(c3ccc(Cl)cc3Cl)C(=O)NC2=O)c2ccccc21 | inactive | –
52 | COc1ccc(C)cc1NC(=O)C(=O)c1cn(CC(=O)N2CCCC2)c2ccccc12 | inconclusive: 6.31 µM [inhibitor, partial curve] | –
53 | O=C(NCC1CCCO1)c1coc2nc3ccccc3nc12 (stereo not drawn) | inactive | –
54 | Cc1ccc(CSCCNC(=O)/C=C/c2ccccc2Cl)cc1 | inconclusive: 25.1 µM [inhibitor, partial curve] | –
55 | CC1CCN(C(=O)c2ccc(NC(=O)c3ccccc3)cc2)CC1 | inconclusive: 39.8 µM [inhibitor, single point] | –
56 | Cn1c(SCC(=O)N/N=C/C=C/c2ccco2)nc2ccccc21 | inconclusive: 28.2 µM [inhibitor, partial curve] | –
57 | O=C1CC(C(=O)Nc2ccccc2)C2(CCCCC2)O1 (stereo not drawn) | inactive | –
58 | O=C(CCC1CCCCC1)NCCN1C2=NC[C@@H](Cc3ccccc3)N2C[C@H]1Cc1ccc(O)cc1 | inconclusive: 7.94 µM [inhibitor, partial curve] | –
59 | Cc1cccc(OCC(=O)Nc2nc3c(s2)CC(C(C)(C)C)CC3)c1C (stereo not drawn) | inconclusive: 3.98 µM [inhibitor, partial curve] | –
60 | Clc1cccc(-c2nc(-c3ccccn3)no2)c1 | inconclusive: 35.5 µM [inhibitor, partial curve] | –
61 | O=C(Nc1ccc(F)c(F)c1)c1cc(S(=O)(=O)NC2CCCCCC2)ccc1F | inconclusive: 35.5 µM [inhibitor, partial curve] | –
62 | CCC1CCC2(CC1)NC(=O)N(CC(=O)Nc1cc(C)on1)C2=O (stereo not drawn) | inconclusive: 35.5 µM [inhibitor, single point] | –
63 | CCOC(=O)c1sc2ccccc2c1S(=O)(=O)Nc1ccc(CC)cc1 | inconclusive: 31.6 µM [inhibitor, single point] | –
64 | O=C(COc1ccccc1Cl)Nc1ccc(Cl)cn1 | inactive | –
65 | O=C(CSc1nnc(C2COc3ccccc3O2)o1)N1CCCCC1 (stereo not drawn) | inconclusive: 17.8 µM [inhibitor, partial curve] | –
66 | CCn1ncc(Br)c1C(=O)N(C)C12CC3CC(CC(C3)C1)C2 | inconclusive: 20 µM [inhibitor, partial curve] | –
67 | O=S(=O)(Nc1cc(F)ccc1F)c1ccc2[nH]c3c(c2c1)CCCC3 | inconclusive: 22.4 µM [inhibitor, partial curve] | –
68 | CCN(C(=O)c1cc([N+](=O)[O-])ccc1NCc1cccnc1)c1ccccc1 | inconclusive: 15.8 µM [inhibitor, partial curve] | –

Reference: PubChem BioAssay AID485281 (National Center for Advancing Translational Sciences (NCATS), 2010)
